Results taken from the supplement of paper PMC4604168 (melanoma cell lines).
Some of the results follow. Many values rest on one well or one pass, so single values are uncertain.

What follows are compounds tested on SkMel5 (assay: cell count relative to DMSO control; melanoma cells; higher = more viable cells). Details: library dose: standard library concentration; 72 h.
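Further: cells treated in 1,536-well plates, then fixed and DAPI-stained, with nuclei counted from automated high-throughput microscope images.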

SMILES | cell count [%]
CC1(C)CCC(c2ccc(Cl)cc2)=C(CN2CCN(c3ccc(C(=O)NS(=O)(=O)c4ccc(N[C@H](CCN5CCOCC5)CSc5ccccc5)c(S(=O)(=O)C(F)(F)F)c4)cc3)CC2)C1 + CC(C)CCN1c2nc(Nc3cc(F)c(O)c(F)c3)ncc2N(C)C(=O)C1C [BID1870] (first compound 2 µM, partner dose 1 µM) | 73.2
Cc1ccc(Nc2nccc(N(C)c3ccc4c(C)n(C)nc4c3)n2)cc1S(N)(=O)=O [Pazopanib] + COc1ccc2c(c1)CCC1C2CCC2(C)C(NCCCCCCN3C(=O)C=CC3=O)CCC12 [U73122] (first compound 2 µM, partner dose 2 µM) | 82.7
CC1(C)CCC(c2ccc(Cl)cc2)=C(CN2CCN(c3ccc(C(=O)NS(=O)(=O)c4ccc(N[C@H](CCN5CCOCC5)CSc5ccccc5)c(S(=O)(=O)C(F)(F)F)c4)cc3)CC2)C1 + COc1ccc(-c2ccc3c(N4CCOCC4)nc(N4C[C@@H](C)O[C@@H](C)C4)nc3n2)cc1CO [KU0063794] (first compound 2 µM, partner dose 0.1 µM) | 47.5
CC1(C)CCC(c2ccc(Cl)cc2)=C(CN2CCN(c3ccc(C(=O)NS(=O)(=O)c4ccc(N[C@H](CCN5CCOCC5)CSc5ccccc5)c(S(=O)(=O)C(F)(F)F)c4)cc3)CC2)C1 + CCN(CC)CCCCNc1ncc2cc(-c3cc(OC)cc(OC)c3)c(NC(=O)NC(C)(C)C)nc2n1 [PD173074] (first compound 2 µM, partner dose 0.5 µM) | 91.5
